The test concerns the target GST-tagged GDP-loaded KRAS G12V (amino acids 1-169) (Homo sapiens, UniProt P01116, G12V). Briefly: biochemical.
In the case of `C#Cc1c(F)ccc2cc(O)cc(-c3nc4c5c(nc(OCC67CCCN6CC(F)C7)nc5c3F)N3CCC3CO4)c12` (single isomer, unassigned) [Example 18], the midpoint of inhibition, the IC50, lay at 1.5 nM. In turn, `C#Cc1c(F)ccc2cc(O)cc(-c3cc4c5c(nc(OC[C@@]67CCCN6C[C@H](F)C7)nc5c3F)N3CC(F)(F)C[C@H]3CO4)c12` [Example 4, 5-ethynyl-6-fluoro-4-((S)-2,2,8-trifluoro-6-(((2R,7aS)-2-fluorotetrahydro-1H-pyrrolizin-7a(5H)-yl)methoxy)-2,3,12,12a-tetrahydro-1H-pyrrolo[2′,1′:3,4][1,4]oxazepino[5,6,7-de]quinazolin-9-yl)naphthalen-2-ol] showed an IC50 of 10 nM. In turn, `Nc1cc(Cl)c(C(F)(F)F)c(-c2nc3c4c(nc(OC[C@@]56CCCN5C[C@H](F)C6)nc4c2F)N2CC[C@H]2CCO3)c1` [Example 22, 3-chloro-5-((S)-6-fluoro-4-(((2R,7aS)-2-fluorotetrahydro-1H-pyrrolizin-7a(5H)-yl)methoxy)-1,10,11,11a-tetrahydro-2H-9-oxa-2a,3,5,8-tetraazacyclobuta[4,5]cycloocta[1,2,3-de]naphthalen-7-yl)-4-(trifluoromethyl)aniline] came in with an IC50 of 6 nM. Consider `Nc1cc(Cl)c(C(F)(F)F)c(-c2nc3c4c(nc(OC[C@@]56CCCN5C[C@H](F)C6)nc4c2F)N2CCC(F)C2CO3)c1` (stereo partly drawn) [Example 17, 3-chloro-5-(1,7-difluoro-5-(((2R,7aS)-2-fluorotetrahydro-1H-pyrrolizin-7a(5H)-yl)methoxy)-2,3,11,11a-tetrahydro-1H-10-oxa-3a,4,6,9-tetraazanaphtho[1,8-ef]azulen-8-yl)-4-(trifluoromethyl)aniline], for which the IC50 worked out at 8.9 nM. The result for `C#Cc1c(F)ccc2cc(O)cc(-c3nc4c5c(nc(OC[C@@]67CCCN6C[C@H](F)C7)nc5c3F)N3C[C@H](F)C[C@H]3CO4)c12` [Example 19, 4-((2R,11aS)-2,7-difluoro-5-(((2R,7aS)-2-fluorotetrahydro-1H-pyrrolizin-7a(5H)-yl)methoxy)-2,3,11,11a-tetrahydro-1H-10-oxa-3a,4,6,9-tetraazanaphtho[1,8-ef]azulen-8-yl)-5-ethynyl-6-fluoronaphthalen-2-ol] reads 0.71 nM. As for `Cc1cc(N)cc(-c2nc3c4c(nc(OC[C@@]56CCCN5C[C@H](F)C6)nc4c2F)N2CCC[C@@H]2CCO3)c1C(F)(F)F` [Example 12, 3-((R)-7-fluoro-5-(((2R,7aS)-2-fluorotetrahydro-1H-pyrrolizin-7a(5H)-yl)methoxy)-1,2,3,11,12,12a-hexahydro-10-oxa-3a,4,6,9-tetraazacyclopenta[4,5]cycloocta[1,2,3-de]naphthalen-8-yl)-5-methyl-4-(trifluoromethyl)aniline], the midpoint of inhibition, the IC50, lay at 3.2 nM. Turning to `N#Cc1c(N)sc2c(F)ccc(-c3cc4c5c(nc(OC[C@@]67CCCN6C[C@H](F)C7)nc5c3F)N3CCC[C@@H]3CCO4)c12` [Example 5, 2-amino-7-fluoro-4-((R)-8-fluoro-6-(((2R,7aS)-2-fluorotetrahydro-1H-pyrrolizin-7a(5H)-yl)methoxy)-1,2,3,12,13,13a-hexahydropyrrolo[1′,2′:5,6][1,5]oxazocino[4,3,2-de]quinazolin-9-yl)benzo[b]thiophene-3-carbonitrile], half-maximal inhibition (IC50) was put at 3.6 nM.

The molecule `Nc1cc(Cl)c(C(F)(F)F)c(-c2nc3c4c(nc(OC[C@@]56CCCN5C[C@H](F)C6)nc4c2F)N2CCC[C@@H]2CCO3)c1` [Example 11, 3-chloro-5-((R)-7-fluoro-5-(((2R,7aS)-2-fluorotetrahydro-1H-pyrrolizin-7a(5H)-yl)methoxy)-1,2,3,11,12,12a-hexahydro-10-oxa-3a,4,6,9-tetraazacyclopenta[4,5]cycloocta[1,2,3-de]naphthalen-8-yl)-4-(trifluoromethyl)aniline] displayed an IC50 of 1.6 nM.

For the molecule `C#Cc1c(F)ccc2cc(O)cc(-c3cc4c5c(nc(OC[C@@]67CCCN6C[C@H](F)C7)nc5c3F)N3CCCCC3CCO4)c12` (stereo partly drawn) [Example 6, 5-ethynyl-6-fluoro-4-(1-fluoro-13-(((2R,7aS)-2-fluorotetrahydro-1H-pyrrolizin-7a(5H)-yl)methoxy)-6,6a,7,8,9,10-hexahydro-5H-pyrido[1′,2′:5,6][1,5]oxazocino[4,3,2-de]quinazolin-2-yl)naphthalen-2-ol], the IC50 is 0.76 nM. As for `C#Cc1c(F)ccc2cc(O)cc(-c3nc4c5c(nc(OCC67CCCN6CC(F)C7)nc5c3F)N3CCC3CO4)c12` (single isomer, unassigned) [Example 20], the IC50 is 0.57 nM. The result for `Nc1cc(Cl)c(C(F)(F)F)c(-c2nc3c4c(nc(OC[C@@]56CCCN5C[C@H](F)C6)nc4c2F)N2CCC[C@@H]2CO3)c1` [Example 13, 3-chloro-5-((R)-7-fluoro-5-(((2R,7aS)-2-fluorotetrahydro-1H-pyrrolizin-7a(5H)-yl)methoxy)-2,3,11,11a-tetrahydro-1H-10-oxa-3a,4,6,9-tetraazanaphtho[1,8-ef]azulen-8-yl)-4-(trifluoromethyl)aniline] reads 7.4 nM.

For the molecule `Nc1cc(Cl)c(C(F)(F)F)c(-c2nc3c4c(nc(OC[C@@]56CCCN5C[C@H](F)C6)nc4c2F)N2CCC[C@H]2CO3)c1` [Example 9, 3-chloro-5-((S)-7-fluoro-5-(((2R,7aS)-2-fluorotetrahydro-1H-pyrrolizin-7a(5H)-yl)methoxy)-2,3,11,11a-tetrahydro-1H-10-oxa-3a,4,6,9-tetraazanaphtho[1,8-e]azulen-8-yl)-4-(trifluoromethyl)aniline], inhibition was half-maximal at 6.4 nM (IC50). In turn, `Nc1cc(Cl)c(C(F)(F)F)c(-c2nc3c4c(nc(OC[C@@]56CCCN5C[C@H](F)C6)nc4c2F)N2CC[C@@H]2CCO3)c1` [Example 23, 3-chloro-5-((R)-6-fluoro-4-(((2R,7aS)-2-fluorotetrahydro-1H-pyrrolizin-7a(5H)-yl)methoxy)-1,10,11,11a-tetrahydro-2H-9-oxa-2a,3,5,8-tetraazacyclobuta[4,5]cycloocta[1,2,3-de]naphthalen-7-yl)-4-(trifluoromethyl)aniline] came in with an IC50 of 1.5 nM.

Consider `Nc1cc(Cl)c(C(F)(F)F)c(-c2nc3c4c(nc(OC[C@@]56CCCN5C[C@H](F)C6)nc4c2F)N2CCCC[C@H]2CO3)c1` [Example 15, 3-chloro-5-((S)-1-fluoro-11-(((2R,7aS)-2-fluorotetrahydro-1H-pyrrolizin-7a(5H)-yl)methoxy)-5,5a,6,7,8,9-hexahydro-4-oxa-3,9a,10,12-tetraazabenzo[4,5]cyclohepta[1,2,3-de]naphthalen-2-yl)-4-(trifluoromethyl)aniline], for which inhibition was half-maximal at 4.8 nM (IC50). For `N#Cc1c(N)sc2c(F)ccc(-c3cc4c5c(nc(OC[C@@]67CCCN6C[C@H](F)C7)nc5c3F)N3CCC[C@H]3CO4)c12` [Example 1, 2-amino-7-fluoro-4-((S)-4-fluoro-2-(((2R,7aS)-2-fluorotetrahydro-1H-pyrrolizin-7a(5H)-yl)methoxy)-8a,9,10,11-tetrahydro-8H-pyrrolo[2′,1′:3,4][1,4]oxazepino[5,6,7-de]quinazolin-5-yl)benzo[b]thiophene-3-carbonitrile], the IC50 came out at 1.7 nM.

The molecule `N#Cc1c(N)sc2c(F)ccc(-c3c(Cl)c4c5c(nc(OC[C@@]67CCCN6C[C@H](F)C7)nc5c3F)N3CCC[C@@H]3CCO4)c12` [Example 7, 2-amino-4-((13aR)-10-chloro-8-fluoro-6-(((2R,7aS)-2-fluorotetrahydro-1H-pyrrolizin-7a (5H)-yl)methoxy)-1,2,3,12,13,13a-hexahydropyrrolo[1′,2′:5,6][1,5]oxazocino[4,3,2-de]quinazolin-9-yl)-7-fluorobenzo[b]thiophene-3-carbonitrile] displayed an IC50 of 0.48 nM.

Usually IC50 stands for the concentration that inhibits the measured activity by half. A higher IC50 goes with lower potency.

The record behind these values is patent US20250250287A1, “HETEROCYCLIC COMPOUNDS, COMPOSITIONS THEREOF, AND METHODS OF TREATMENT THEREWITH” (BeiGene Switzerland GmbH, priority 2022, published 2025).
